By IC50 is meant the dose at which the fit gives 50% viability; a limit (>, <) means that the fit lies beyond the doses tested. The AUC spans the tested range (256-fold, ending at the top dose) of the same fit; it is 1 without any effect and falls as sensitivity rises. Any top dose called inferred is not printed in the source and was worked back from the curve model. For some assays here: Drugs with an entry number were screened twice under separate entries, and the two screens often disagree.
compound: CC(C)=CC[C@@H](O)C1=CC(=O)c2c(O)ccc(O)c2C1=O [Shikonin]; assay: Viability of human cancer cell lines after 72 h of drug (GDSC screen); settings: top dose 16 µM; top dose inferred
Procedure: (§1)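 Human cancer cell lines in 384-well plates, medium with 10% serum, drug for 72 h over a 256-fold dose range (nine 2-fold or five 4-fold steps up to the top dose). Adherent lines were fixed and stained with the nucleic acid dye Syto60, suspension lines read with resazurin; signal relative to control wells, capped at 0 and 100%. One two-parameter sigmoid per drug and line, fitted in a mixed model over all curves with the slope shared within a line.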

| Cell Line | AUC | IC50 [µM] |
| --- | --- | --- |
| D-263MG (glioma, adherent) | 0.601 | 2.01 |
| D-336MG (glioma, adherent) | 0.563 | 1.57 |
| DG-75 (Burkitt lymphoma, suspension) | 0.495 | 0.967 |
| DMS-114 (small cell lung carcinoma, adherent) | 0.912 | > 16 |
| DND-41 (T-cell leukaemia, suspension) | 0.421 | 0.627 |
| Daudi (Burkitt lymphoma, suspension) | 0.613 | 1.95 |
| EC-GI-10 (oesophagus, adherent) | 0.95 | > 16 |
| ES1 (Ewing sarcoma, adherent) | 0.41 | 0.569 |
| ES4 (Ewing sarcoma, adherent) | 0.568 | 1.57 |
| ES5 (Ewing sarcoma, adherent) | 0.63 | 2.42 |

compound: CCNc1cc(NC2CCC(O)CC2)nc(Nc2ccc3c(ccn3Cc3ccccc3)c2)n1 [CGP-082996 (CINK4)]; assay: as above; settings: top dose 5.12 µM; top dose inferred
Procedure: as §1

| Cell Line | AUC | IC50 [µM] |
| --- | --- | --- |
| D-263MG (glioma, adherent) | 0.976 | > 5.12 |
| D-336MG (glioma, adherent) | 0.815 | 3.88 |
| DG-75 (Burkitt lymphoma, suspension) | 0.945 | > 5.12 |
| DMS-114 (small cell lung carcinoma, adherent) | 0.979 | > 5.12 |
| DND-41 (T-cell leukaemia, suspension) | 0.911 | > 5.12 |
| Daudi (Burkitt lymphoma, suspension) | 0.832 | 2.7 |
| EC-GI-10 (oesophagus, adherent) | 0.989 | > 5.12 |
| ES1 (Ewing sarcoma, adherent) | 0.973 | > 5.12 |
| ES4 (Ewing sarcoma, adherent) | 0.92 | > 5.12 |
| ES5 (Ewing sarcoma, adherent) | 0.978 | > 5.12 |

compound: CNC(=O)c1ccc(Nc2cc(Nc3ccccc3S(=O)(=O)C(C)C)c3cc[nH]c3n2)nc1 [HG-5-113-01]; assay: as above; settings: top dose 10 µM; top dose inferred
Procedure: as §1

| Cell Line | AUC | IC50 [µM] |
| --- | --- | --- |
| D-263MG (glioma, adherent) | 0.77 | 4.6 |
| D-336MG (glioma, adherent) | 0.728 | 3.42 |
| DG-75 (Burkitt lymphoma, suspension) | 0.777 | 4.07 |
| DMS-114 (small cell lung carcinoma, adherent) | 0.849 | 9.26 |
| DND-41 (T-cell leukaemia, suspension) | 0.73 | 2.56 |
| Daudi (Burkitt lymphoma, suspension) | 0.703 | 2.13 |
| EC-GI-10 (oesophagus, adherent) | 0.706 | 2.37 |
| ES1 (Ewing sarcoma, adherent) | 0.643 | 1.54 |
| ES4 (Ewing sarcoma, adherent) | 0.702 | 2.54 |
| ES5 (Ewing sarcoma, adherent) | 0.637 | 1.58 |

compound: COc1cc(-c2nn([C@H]3CC[C@H](N4CCN(C(C)=O)CC4)CC3)c3ncnc(N)c23)ccc1NC(=O)c1cc2ccccc2n1C [A-770041]; assay: as above; settings: top dose 5.12 µM; top dose inferred
Procedure: as §1

| Cell Line | AUC | IC50 [µM] |
| --- | --- | --- |
| D-263MG (glioma, adherent) | 0.896 | > 5.12 |
| D-336MG (glioma, adherent) | 0.469 | 0.258 |
| DG-75 (Burkitt lymphoma, suspension) | 0.933 | > 5.12 |
| DMS-114 (small cell lung carcinoma, adherent) | 0.98 | > 5.12 |
| DND-41 (T-cell leukaemia, suspension) | 0.968 | > 5.12 |
| Daudi (Burkitt lymphoma, suspension) | 0.694 | 1.03 |
| EC-GI-10 (oesophagus, adherent) | 0.989 | > 5.12 |
| ES1 (Ewing sarcoma, adherent) | 0.981 | > 5.12 |
| ES4 (Ewing sarcoma, adherent) | 0.967 | > 5.12 |
| ES5 (Ewing sarcoma, adherent) | 0.981 | > 5.12 |

compound: COc1cc(N2CCN(C)CC2)ccc1Nc1ncc2c(n1)N(C)c1ccccc1C(=O)N2C [XMD8-85]; assay: as above; settings: top dose 8 µM; top dose inferred
Procedure: as §1

| Cell Line | AUC | IC50 [µM] |
| --- | --- | --- |
| D-263MG (glioma, adherent) | 0.827 | 6.36 |
| D-336MG (glioma, adherent) | 0.495 | 0.483 |
| DG-75 (Burkitt lymphoma, suspension) | 0.85 | 6.19 |
| DMS-114 (small cell lung carcinoma, adherent) | 0.931 | > 8 |
| DND-41 (T-cell leukaemia, suspension) | 0.781 | 2.91 |
| Daudi (Burkitt lymphoma, suspension) | 0.889 | 7.06 |
| EC-GI-10 (oesophagus, adherent) | 0.989 | > 8 |
| ES1 (Ewing sarcoma, adherent) | 0.959 | > 8 |
| ES4 (Ewing sarcoma, adherent) | 0.921 | > 8 |
| ES5 (Ewing sarcoma, adherent) | 0.874 | > 8 |

compound: Cc1cc(N2CCOCC2)cc2[nH]c(-c3c(NC[C@@H](O)c4cccc(Cl)c4)cc[nH]c3=O)nc12 [BMS-536924]; assay: as above; settings: top dose 4 µM; screen: GDSC drug entry 1091; top dose inferred
Procedure: as §1

| Cell Line | AUC | IC50 [µM] |
| --- | --- | --- |
| D-263MG (glioma, adherent) | 0.895 | > 4 |
| D-336MG (glioma, adherent) | 0.864 | > 4 |
| DG-75 (Burkitt lymphoma, suspension) | 0.951 | > 4 |
| DMS-114 (small cell lung carcinoma, adherent) | 0.84 | 3.39 |
| DND-41 (T-cell leukaemia, suspension) | 0.87 | 2.99 |
| Daudi (Burkitt lymphoma, suspension) | 0.856 | 2.59 |
| EC-GI-10 (oesophagus, adherent) | 0.974 | > 4 |
| ES1 (Ewing sarcoma, adherent) | 0.683 | 0.805 |
| ES4 (Ewing sarcoma, adherent) | 0.854 | 3.92 |
| ES5 (Ewing sarcoma, adherent) | 0.709 | 1.07 |

same assay, conditions: top dose 5.12 µM; screen: GDSC drug entry 62

| Cell Line | AUC | IC50 [µM] |
| --- | --- | --- |
| D-263MG (glioma, adherent) | 0.88 | > 5.12 |
| D-336MG (glioma, adherent) | 0.582 | 0.571 |
| DG-75 (Burkitt lymphoma, suspension) | 0.947 | > 5.12 |
| DMS-114 (small cell lung carcinoma, adherent) | 0.853 | 4.99 |
| DND-41 (T-cell leukaemia, suspension) | 0.78 | 1.85 |
| Daudi (Burkitt lymphoma, suspension) | 0.929 | > 5.12 |
| EC-GI-10 (oesophagus, adherent) | 0.989 | > 5.12 |
| ES1 (Ewing sarcoma, adherent) | 0.708 | 1.22 |
| ES4 (Ewing sarcoma, adherent) | 0.593 | 0.601 |
| ES5 (Ewing sarcoma, adherent) | 0.949 | > 5.12 |

compound: Cc1ccc(-n2nc(C(C)(C)C)cc2NC(=O)Nc2ccc(OCCN3CCOCC3)c3ccccc23)cc1 [BIRB 0796]; assay: as above; settings: top dose 10 µM; top dose inferred
Procedure: as §1

| Cell Line | AUC | IC50 [µM] |
| --- | --- | --- |
| D-263MG (glioma, adherent) | 0.983 | > 10 |
| D-336MG (glioma, adherent) | 0.98 | > 10 |
| DG-75 (Burkitt lymphoma, suspension) | 0.972 | > 10 |
| DMS-114 (small cell lung carcinoma, adherent) | 0.964 | > 10 |
| DND-41 (T-cell leukaemia, suspension) | 0.983 | > 10 |
| Daudi (Burkitt lymphoma, suspension) | 0.989 | > 10 |
| EC-GI-10 (oesophagus, adherent) | 0.96 | > 10 |
| ES1 (Ewing sarcoma, adherent) | 0.945 | > 10 |
| ES4 (Ewing sarcoma, adherent) | 0.975 | > 10 |
| ES5 (Ewing sarcoma, adherent) | 0.951 | > 10 |

compound: Cc1cccc(-c2[nH]c(C(C)(C)C)nc2-c2ccc3nccnc3c2)n1 [SB-525334]; assay: as above; settings: top dose 20 µM; top dose inferred
Procedure: as §1

| Cell Line | AUC | IC50 [µM] |
| --- | --- | --- |
| D-263MG (glioma, adherent) | 0.974 | > 20 |
| D-336MG (glioma, adherent) | 0.953 | > 20 |
| DG-75 (Burkitt lymphoma, suspension) | 0.965 | > 20 |
| DMS-114 (small cell lung carcinoma, adherent) | 0.911 | > 20 |
| DND-41 (T-cell leukaemia, suspension) | 0.957 | > 20 |
| Daudi (Burkitt lymphoma, suspension) | 0.911 | > 20 |
| EC-GI-10 (oesophagus, adherent) | 0.982 | > 20 |
| ES1 (Ewing sarcoma, adherent) | 0.819 | 11.1 |
| ES4 (Ewing sarcoma, adherent) | 0.548 | 1.73 |
| ES5 (Ewing sarcoma, adherent) | 0.861 | > 20 |

compound: NC(=O)c1ccc(N(C(N)=O)c2c(F)cccc2F)nc1-c1ccc(F)cc1F [VX-702]; assay: as above; settings: top dose 2 µM; top dose inferred
Procedure: as §1

| Cell Line | AUC | IC50 [µM] |
| --- | --- | --- |
| D-263MG (glioma, adherent) | 0.982 | > 2 |
| D-336MG (glioma, adherent) | 0.945 | > 2 |
| DG-75 (Burkitt lymphoma, suspension) | 0.955 | > 2 |
| DMS-114 (small cell lung carcinoma, adherent) | 0.985 | > 2 |
| DND-41 (T-cell leukaemia, suspension) | 0.983 | > 2 |
| Daudi (Burkitt lymphoma, suspension) | 0.988 | > 2 |
| EC-GI-10 (oesophagus, adherent) | 0.988 | > 2 |
| ES1 (Ewing sarcoma, adherent) | 0.985 | > 2 |
| ES4 (Ewing sarcoma, adherent) | 0.965 | > 2 |
| ES5 (Ewing sarcoma, adherent) | 0.964 | > 2 |

compound: O=C(c1cc(Cc2n[nH]c(=O)c3ccccc23)ccc1F)N1CCN(C(=O)C2CC2)CC1 [Olaparib]; assay: as above; settings: top dose 5 µM; screen: GDSC drug entry 1017; top dose inferred
Procedure: as §1

| Cell Line | AUC | IC50 [µM] |
| --- | --- | --- |
| D-263MG (glioma, adherent) | 0.964 | > 5 |
| D-336MG (glioma, adherent) | 0.978 | > 5 |
| DG-75 (Burkitt lymphoma, suspension) | 0.969 | > 5 |
| DMS-114 (small cell lung carcinoma, adherent) | 0.978 | > 5 |
| DND-41 (T-cell leukaemia, suspension) | 0.989 | > 5 |
| Daudi (Burkitt lymphoma, suspension) | 0.986 | > 5 |
| EC-GI-10 (oesophagus, adherent) | 0.988 | > 5 |
| ES1 (Ewing sarcoma, adherent) | 0.813 | 2.64 |
| ES4 (Ewing sarcoma, adherent) | 0.874 | > 5 |
| ES5 (Ewing sarcoma, adherent) | 0.822 | 3.52 |

same assay, conditions: top dose 10 µM; screen: GDSC drug entry 1495

| Cell Line | AUC | IC50 [µM] |
| --- | --- | --- |
| D-263MG (glioma, adherent) | 0.926 | > 10 |
| D-336MG (glioma, adherent) | 0.972 | > 10 |
| DG-75 (Burkitt lymphoma, suspension) | 0.957 | > 10 |
| DMS-114 (small cell lung carcinoma, adherent) | 0.946 | > 10 |
| DND-41 (T-cell leukaemia, suspension) | 0.968 | > 10 |
| Daudi (Burkitt lymphoma, suspension) | 0.94 | > 10 |
| EC-GI-10 (oesophagus, adherent) | 0.937 | > 10 |
| ES1 (Ewing sarcoma, adherent) | 0.659 | 1.71 |
| ES4 (Ewing sarcoma, adherent) | 0.691 | 2.35 |
| ES5 (Ewing sarcoma, adherent) | 0.858 | > 10 |

compound: O=C1NC(=O)c2c1c(-c1ccccc1Cl)cc1[nH]c3ccc(O)cc3c21 [Wee1 inhibitor 681640]; assay: as above; settings: top dose 2 µM; top dose inferred
Procedure: as §1

| Cell Line | AUC | IC50 [µM] |
| --- | --- | --- |
| D-263MG (glioma, adherent) | 0.937 | > 2 |
| D-336MG (glioma, adherent) | 0.937 | > 2 |
| DG-75 (Burkitt lymphoma, suspension) | 0.848 | 1.52 |
| DMS-114 (small cell lung carcinoma, adherent) | 0.983 | > 2 |
| DND-41 (T-cell leukaemia, suspension) | 0.964 | > 2 |
| Daudi (Burkitt lymphoma, suspension) | 0.987 | > 2 |
| EC-GI-10 (oesophagus, adherent) | 0.989 | > 2 |
| ES1 (Ewing sarcoma, adherent) | 0.965 | > 2 |
| ES4 (Ewing sarcoma, adherent) | 0.799 | 1.12 |
| ES5 (Ewing sarcoma, adherent) | 0.867 | > 2 |
